# Laboratory results published in article PMC4336329 (PLoS ONE, 2015).
# In all, about 310,000 compounds went through this assay and about 14,000 (4.5%) showed an effect of 50% or more. The effect is printed as a negative number. Some of the results follow.
# Target: human ether-à-go-go-related gene (hERG) potassium channel (human, UniProt Q12809)
# Assay: primary screen, population patch clamp on CHO cells stably expressing hERG
# 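Also: peak tail current of the secondary pulse compared with the same well before compound.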
# Sequence of human ether-à-go-go-related gene (hERG) potassium channel (Q12809 whole entry, looked up): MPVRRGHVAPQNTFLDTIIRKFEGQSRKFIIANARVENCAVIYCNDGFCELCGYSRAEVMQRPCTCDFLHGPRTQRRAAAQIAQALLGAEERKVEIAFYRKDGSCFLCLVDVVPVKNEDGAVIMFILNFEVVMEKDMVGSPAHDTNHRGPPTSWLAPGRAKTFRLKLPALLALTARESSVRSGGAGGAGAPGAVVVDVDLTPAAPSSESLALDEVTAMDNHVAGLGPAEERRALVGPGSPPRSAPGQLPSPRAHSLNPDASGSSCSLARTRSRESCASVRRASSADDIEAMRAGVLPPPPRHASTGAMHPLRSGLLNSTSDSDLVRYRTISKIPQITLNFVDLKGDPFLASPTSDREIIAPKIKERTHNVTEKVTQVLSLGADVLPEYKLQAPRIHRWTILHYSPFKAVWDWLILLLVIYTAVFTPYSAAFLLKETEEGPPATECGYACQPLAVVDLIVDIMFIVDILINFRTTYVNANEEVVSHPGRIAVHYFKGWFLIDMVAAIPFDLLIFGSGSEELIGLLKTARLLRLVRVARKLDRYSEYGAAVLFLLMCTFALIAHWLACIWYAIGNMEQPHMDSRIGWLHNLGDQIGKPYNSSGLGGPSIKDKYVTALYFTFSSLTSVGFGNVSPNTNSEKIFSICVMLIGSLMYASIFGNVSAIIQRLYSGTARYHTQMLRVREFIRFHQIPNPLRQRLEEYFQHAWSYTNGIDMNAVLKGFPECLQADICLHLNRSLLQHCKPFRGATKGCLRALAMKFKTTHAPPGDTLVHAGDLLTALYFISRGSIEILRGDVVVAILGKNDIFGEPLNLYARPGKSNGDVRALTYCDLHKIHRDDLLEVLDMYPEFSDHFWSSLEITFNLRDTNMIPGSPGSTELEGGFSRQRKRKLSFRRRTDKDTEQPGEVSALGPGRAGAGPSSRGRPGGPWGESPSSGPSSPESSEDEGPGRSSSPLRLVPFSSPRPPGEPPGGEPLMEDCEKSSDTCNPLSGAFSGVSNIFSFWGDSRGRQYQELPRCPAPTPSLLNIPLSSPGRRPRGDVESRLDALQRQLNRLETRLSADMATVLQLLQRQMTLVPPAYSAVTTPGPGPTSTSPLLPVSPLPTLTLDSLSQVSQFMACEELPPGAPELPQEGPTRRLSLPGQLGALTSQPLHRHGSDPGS
row,SMILES,"hERG current change (%, negative = inhibition) at 10uM"
1,Cc1ccc(S(=O)(=O)N2CCN(C(=O)N3CCOCC3)C2C)cc1 (stereo not drawn),-6.82%
2,CCN1CCCC1CNC(=O)C1CCN(Cc2nc(-c3cccc(Br)c3)oc2C)CC1 (stereo not drawn),-9.4%
3,CCOC(=O)COc1ccc(Br)cc1/C=C/c1[nH]c(=O)[nH]c(=O)c1[N+](=O)[O-],8%
4,CC(C)(C)NC(=O)NC(=O)Cn1cc(C(F)(F)F)ccc1=O,-3.4%
5,COc1ccc(CC(=O)NNC(=O)c2ccccn2)cc1,3.86%
6,O=C(c1ccc(CN2CCc3ccccc3C2)cc1)N1CCN(c2ccc(F)cc2)CC1,-68.6%
7,CN(C)c1ccc(/C=N\Nc2nc(-c3ccccc3)cc(=O)[nH]2)cc1,-10.6%
8,COc1ccc(OC)c(-c2cc(C(=O)N3CCCc4ccccc43)no2)c1,3.02%
9,N#Cc1ccc(C(=O)Nc2nc(SCc3ccc(Cl)cc3)n[nH]2)cc1,58.2%
10,COc1ccc(C(CNC(=O)C2CC2)N(C)C)cc1 (stereo not drawn),1.52%
11,Cc1ccc(-c2csc(NC(=O)c3ccc(-c4ccccc4)cc3)n2)o1,15.8%
12,CCN(CC)CCCN1C(=O)C(O)=C(C(=O)c2ccco2)C1c1ccc(C)o1 (stereo not drawn),0.173%
13,O=C(CSc1cccc[n+]1[O-])NCCCc1ccccc1,0.0216%
14,CO/C(N)=C(\C#N)N=Cc1ccccc1Cl,20.9%
15,COc1cc2[nH]c(=O)n(CCC(=O)N3CCN(c4cccc(C)c4C)CC3)c(=O)c2cc1OC,-16.3%
16,Cc1cc(C)n2c(SCc3ccc(Cl)cc3Cl)nnc2n1,-5.51%
17,Cc1ccccc1NS(=O)(=O)c1nnc(NC(=O)C(C)C)s1,20.6%
18,CN(C)S(=O)(=O)N1CCN(c2cccc(Cl)c2)CC1,-7.28%
19,FC(F)(F)c1ccc(CSc2ccccn2)cc1,5.44%
20,Cc1ccc(S(=O)(=O)N2CCN(C)CC2)c2nsnc12,24.1%
21,CCCc1c(C(=O)N/N=C(\C)CCc2ccccc2)nnn1-c1nonc1N,4.63%
22,Cc1ccc(C(=O)/C=C/c2ccc3c(c2)OCCO3)c(O)c1,16.4%
23,O=C(Nc1cccc(F)c1)c1c(O)c2cccc3c2n(c1=O)CCC3,8.07%

row,SMILES,"hERG current change (%, negative = inhibition) at 10uM"
1,Br.CC1CCCC(C)N1Cc1cn2ccccc2n1 (stereo not drawn),7.29%
2,CCn1ccnc1CNC(=O)CC1C(=O)NCCN1Cc1ccccc1F (stereo not drawn),0.249%
3,CCOC(=O)C1=C(C)NC(=O)NC1c1ccc(OCC(=O)Nc2ccccc2)c(OC)c1 (stereo not drawn),-26.5%
4,COc1ccc(-c2cc(-c3cccs3)nc(OC)c2C#N)cc1OC,30.3%
5,O=C(Nc1ccncc1)c1c(F)c(F)c(F)c(F)c1F,18%
6,COc1ccc(-c2cc(C(=O)NC(C)C)no2)cc1,0.389%
7,CCN(CC(=O)Nc1cc(Cl)ccc1C)C(=O)CSCc1ccc(C)cc1,-9.48%
8,CCCCC(O)(CCCC)C(=O)NN(C(=O)OC)c1ccccc1,3.62%
9,COc1ccc(S(=O)(=O)N(CC(=O)NCc2ccco2)c2ccccc2)cc1,1.06%
10,O=[N+]([O-])/C=C/c1ccc2c(ccn2Cc2ccccc2)c1,15.8%
11,O=C(COC(=O)c1ccccc1Br)Nc1nnc(-c2ccccc2)o1,-6.09%
12,CCC1(C)CC(c2csc(N)n2)CCO1 (stereo not drawn),-19.4%
13,CCOc1ccc(N(CC(=O)N2CCN(Cc3ccccc3)CC2)S(C)(=O)=O)cc1,-12.2%
14,Cc1cc(C)c(S(=O)(=O)C(C)C)c(=O)[nH]1,11.9%
15,O=[N+]([O-])c1ccc(OCCO)nc1,11.2%
16,COc1ccccc1NC1=NCCS1,-9.72%
17,O=S(=O)(NC1=NCCC1)c1ccc(F)cc1,6.15%
18,O=Cc1c(NCc2cccc(F)c2)c2ccccc2[nH]c1=O,4.17%
19,C=CCN1C(=O)CSC1=Nc1ccc(NC(C)=O)cc1,-4.78%
20,O=C(NC(=S)Nc1ncccn1)c1ccccc1Br,13.6%
21,C/C(=N\c1nc2ccccc2n1C)c1cc(Cl)ccc1O,-5%
22,Cc1cccc(NC(=O)CSCC(=O)Nc2cc(Cl)ccc2N2CCN(C)CC2)c1,-72.8%
23,Cc1cc(C)nc(SCC(=O)c2ccc(F)c(C)c2)n1,7.94%

row,SMILES,"hERG current change (%, negative = inhibition) at 10uM"
1,Cc1cc(C)nc(/N=C(\N)Nc2ccc(SC(F)F)cc2)n1,-74.7%
2,O=C(NN1C(=O)/C(=C/c2cccs2)SC1=S)c1cccnc1,13.7%
3,Cc1c(N2C(=O)C(=O)/C(=C(/O)c3ccccc3)C2c2ccc(F)cc2)c(=O)n(-c2ccccc2)n1C (stereo not drawn),9.58%
4,CC(NS(=O)(=O)c1ccccc1)C(c1cccs1)N1CCOCC1 (stereo not drawn),0.443%
5,CC(C)(C)c1ccc(S(=O)(=O)O/N=C2/CCCCC2c2ccc([N+](=O)[O-])cc2[N+](=O)[O-])cc1 (stereo not drawn),-2.18%
6,CCc1nnc(NC(=O)[C@@H]2CCCN2S(=O)(=O)c2ccc3c(c2)OCCO3)s1,3.86%
7,O=C(CCc1ccccc1)NC(=S)Nc1cccc(C(=O)O)c1,13.2%
8,Cc1cccc(N2CCN(C(=O)C3CCN(S(=O)(=O)c4cccnc4)CC3)CC2)c1C,-35.1%
9,O=C(NCCS(=O)(=O)N1CCN(c2cccc(Cl)c2)CC1)c1ccc2c(c1)OCO2,8.12%
10,Cn1ccnc1SCC(=O)Nc1ccccc1,-0.72%
11,CCCC(c1nnnn1Cc1ccccc1)N1CCN(c2ccccc2OC)CC1.Cl (stereo not drawn),5.61%
12,Cc1[nH]c2ccc(C(=O)NCCCN3CCCCCC3)cc2c1C,-13.1%
13,CCn1c(SCC(=O)Nc2ccc(OC)c(OC)c2)nnc1-c1ccco1,-0.908%
14,O=C(NCCOc1ccc(F)cc1)C1CCC(=O)N(CCCN2CCCC2=O)C1 (stereo not drawn),17%
15,CCOC(=O)c1cc2c(ccn2C)n1CC(=O)N(Cc1ccccc1)c1ccccc1,-22.6%
16,CCS(=O)(=O)N1CCC(NC(=O)c2ccco2)CC1,3.51%
17,Cc1cc(=O)n2nc(-c3ccccc3)sc2n1,8.94%
18,COC(=O)c1ccc2c(=O)n(C3CCCCC3)c(SCC#N)nc2c1,18.2%
19,Cc1cccc(NC(=O)CN2C(=O)S/C(=C\c3ccc(O)c([N+](=O)[O-])c3)C2=O)c1,15.7%
20,CCN1CCN(c2nc(C)c3c(n2)CCCC3=O)CC1,7.28%
21,CCCC12CN3CC(C)(CN(C1)C3c1ccc(OC)cc1)C2=O (stereo not drawn),-6.04%
22,COc1cc(/C=C2/C(=O)NN(c3ccc(Cl)cc3)C2=O)ccc1OC(=O)c1ccco1,12.3%
23,Cc1nc2cc(C(F)(F)F)ccc2n1C1CCN(Cc2nnnn2Cc2ccc3c(c2)OCO3)CC1,-54.1%

row,SMILES,"hERG current change (%, negative = inhibition) at 10uM"
1,O=C(NCCOc1ccccc1)c1ccc2n[nH]nc2c1,0.536%
2,Nc1c(C(=O)Nc2ccccc2)sc2nc3c(c(-c4ccco4)c12)CCCC3,15.2%
3,CC(OC(=O)CCCC(=O)Nc1ccc(F)cc1)C(=O)c1ccccc1 (stereo not drawn),-5.79%
4,Cc1cccn2c(=O)c3cc(C(=O)NC4CCCC4)c(=N)n(C4CCCC4)c3nc12,-79.2%
5,N#C/C(=C/c1ccc(F)cc1)S(=O)(=O)c1ccccc1,21.3%
6,Nc1nnc(SCC(=O)NNC(=O)c2ccc(Cl)cc2)s1,-0.0303%
7,COc1ccc(NC(=O)C2CC(=O)n3cnnc3S2)cc1 (stereo not drawn),-0.251%
8,COc1ccc(CCN2CC(C(=O)N3CCC(O)(c4ccccc4)CC3)CCC2=O)cc1 (stereo not drawn),-12.5%
9,Cn1nc(C(=O)Nc2c(-c3ccccc3)nc3sccn23)c2ccccc2c1=O,16.1%
10,COc1ccc(NC(=O)C2CCC(CNS(=O)(=O)c3csc(C(N)=O)c3)CC2)cc1OC (stereo not drawn),15.3%
11,O=C(NC1=NCCS1)c1cccc(NC(=O)c2ccco2)c1,8.61%
12,O=c1[nH]cnc2c1N=C(c1cccc([N+](=O)[O-])c1)CC(c1ccccc1)N2 (stereo not drawn),13.1%
13,COc1ccc(CN2C(=O)c3cccnc3C2=O)cc1S(=O)(=O)N1CCOc2ccccc21,-14.1%
14,CCN(CC)C(=O)C(=O)N/N=C/c1ccc(Cl)cc1Cl,11.6%
15,COc1ccccc1Cn1c(=S)[nH]c2cc(C(=O)N3CCCC3)ccc2c1=O,23.5%
16,O=C(Nc1cc([N+](=O)[O-])ccc1Cl)c1ccc2c(c1)OCO2,-0.172%
17,CCOC(=O)CSc1ccc(C(=O)NCCCN2CCOCC2)cc1[N+](=O)[O-],10.2%
18,CN(C(=O)c1ccc(-c2ccccc2)cc1)C1CCCCC1,1.5%
19,Cc1cc(C(=O)NN)c(C)o1,10.3%
20,COc1cccc(NC(=S)NNC(=O)Cn2nc([N+](=O)[O-])cc2C)c1,22.9%
21,Cc1ccccc1Oc1cccc(C(=O)/C(C#N)=C/N(C)C)c1,-14%
